# Experimental data as given in the supplement of paper PMC8728848.
# Some of the results follow.
# What was measured:
# Assay in all cases: glycan array binding signal (z-score within array); higher = stronger binding
# Conditions in all cases: glycan notation: IUPAC condensed, linker removed; mutation: I144G
# [1] = molecular target: Fuc(a1-2)[Gal(a1-3)]Gal(b1-4)GlcNAc(b1-2)Man(a1-3)[Fuc(a1-2)[Gal(a1-3)]Gal(b1-4)GlcNAc(b1-2)Man(a1-6)]Man(b1-4)GlcNAc(b1-4)GlcNAc
# In short: (§1)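 Glycan array data were curated from 3228 arrays in the Consortium for Functional Glycomics database and kept only where the protein sequence was available. Glycan names were converted to IUPAC-condensed notation, and columns mapping to the same glycan were averaged. The binding signal is a within-array Z-score, averaged across arrays of the same protein sequence at different concentrations or buffers and across linkers. Negative Z-scores can be read as non-binding.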
# [2] = molecular target: Fuc(a1-2)[Gal(a1-3)]Gal(b1-4)GlcNAc(b1-2)Man(a1-3)[Fuc(a1-2)[Gal(a1-3)]Gal(b1-4)GlcNAc(b1-2)Man(a1-6)]Man(b1-4)GlcNAc(b1-4)[Fuc(a1-6)]GlcNAc
# In short: as §1
# [3] = molecular target: Fuc(a1-2)[Gal(a1-3)]Gal(b1-4)GlcNAc(b1-3)GalNAc
# In short: as §1
# [4] = molecular target: Fuc(a1-2)[Gal(a1-3)]Gal(b1-4)GlcNAc(b1-3)[Fuc(a1-2)[Gal(a1-3)]Gal(b1-4)GlcNAc(b1-6)]GalNAc
# In short: as §1
# [5] = molecular target: Fuc(a1-2)[Gal(a1-3)]Gal(b1-4)GlcNAc(b1-6)GalNAc
# In short: as §1
# [6] = molecular target: Fuc(a1-2)[Gal(a1-3)]Gal(b1-4)[Fuc(a1-3)]Glc
# In short: as §1
# [7] = molecular target: Fuc(a1-2)[Gal(a1-3)]Gal(b1-4)[Fuc(a1-3)]GlcNAc
# In short: as §1
# [8] = molecular target: Fuc(a1-2)[Gal(a1-3)]Gal(b1-4)[Fuc(a1-3)]GlcNAc(b1-3)GalNAc
# In short: as §1
# [9] = molecular target: Fuc(a1-2)[Gal(a1-4)]Gal(b1-4)GlcNAc
# In short: as §1
# [10] = molecular target: Fuc(a1-2)[GalNAc(a1-3)]Gal
# In short: as §1
# [11] = molecular target: Fuc(a1-2)[GalNAc(a1-3)]Gal(b1-3)GalNAc(a1-3)[Fuc(a1-2)]Gal(b1-4)GlcNAc
# In short: as §1
# [12] = molecular target: Fuc(a1-2)[GalNAc(a1-3)]Gal(b1-3)GalNAc(b1-3)Gal(a1-4)Gal(b1-4)Glc
# In short: as §1
# [13] = molecular target: Fuc(a1-2)[GalNAc(a1-3)]Gal(b1-3)GlcNAc
# In short: as §1
# [14] = molecular target: Fuc(a1-2)[GalNAc(a1-3)]Gal(b1-3)GlcNAc(b1-2)Man(a1-3)[Fuc(a1-2)[GalNAc(a1-3)]Gal(b1-3)GlcNAc(b1-2)Man(a1-6)]Man(b1-4)GlcNAc(b1-4)GlcNAc
# In short: as §1
# [15] = molecular target: Fuc(a1-2)[GalNAc(a1-3)]Gal(b1-3)GlcNAc(b1-2)Man(a1-3)[Fuc(a1-2)[GalNAc(a1-3)]Gal(b1-3)GlcNAc(b1-2)Man(a1-6)]Man(b1-4)GlcNAc(b1-4)[Fuc(a1-6)]GlcNAc
# In short: as §1
# [16] = molecular target: Fuc(a1-2)[GalNAc(a1-3)]Gal(b1-3)GlcNAc(b1-3)GalNAc
# In short: as §1
# [17] = molecular target: Fuc(a1-2)[GalNAc(a1-3)]Gal(b1-3)GlcNAc(b1-6)GalNAc
# In short: as §1
# [18] = molecular target: Fuc(a1-2)[GalNAc(a1-3)]Gal(b1-4)Glc
# In short: as §1
# [19] = molecular target: Fuc(a1-2)[GalNAc(a1-3)]Gal(b1-4)GlcNAc
# In short: as §1
# [20] = molecular target: Fuc(a1-2)[GalNAc(a1-3)]Gal(b1-4)GlcNAc(b1-2)Man
# In short: as §1
# [21] = molecular target: Fuc(a1-2)[GalNAc(a1-3)]Gal(b1-4)GlcNAc(b1-2)Man(a1-3)[Fuc(a1-2)[GalNAc(a1-3)]Gal(b1-4)GlcNAc(b1-2)Man(a1-6)]Man(b1-4)GlcNAc(b1-4)GlcNAc
# In short: as §1
# [22] = molecular target: Fuc(a1-2)[GalNAc(a1-3)]Gal(b1-4)GlcNAc(b1-2)Man(a1-3)[Fuc(a1-2)[GalNAc(a1-3)]Gal(b1-4)GlcNAc(b1-2)Man(a1-6)]Man(b1-4)GlcNAc(b1-4)[Fuc(a1-6)]GlcNAc
# In short: as §1
# [23] = molecular target: Fuc(a1-2)[GalNAc(a1-3)]Gal(b1-4)GlcNAc(b1-3)Gal(b1-4)GlcNAc
# In short: as §1
# [24] = molecular target: Fuc(a1-2)[GalNAc(a1-3)]Gal(b1-4)GlcNAc(b1-3)Gal(b1-4)GlcNAc(b1-3)Gal(b1-4)GlcNAc
# In short: as §1
# [25] = molecular target: Fuc(a1-2)[GalNAc(a1-3)]Gal(b1-4)GlcNAc(b1-3)GalNAc
# In short: as §1
# [26] = molecular target: Fuc(a1-2)[GalNAc(a1-3)]Gal(b1-4)GlcNAc(b1-3)[Fuc(a1-2)[GalNAc(a1-3)]Gal(b1-4)GlcNAc(b1-6)]GalNAc
# In short: as §1
# [27] = molecular target: Fuc(a1-2)[GalNAc(a1-3)]Gal(b1-4)GlcNAc(b1-6)GalNAc
# In short: as §1
# [28] = molecular target: Fuc(a1-2)[GalNAc(a1-3)]Gal(b1-4)[Fuc(a1-3)]GlcNAc
# In short: as §1
# [29] = molecular target: Fuc(a1-2)[GalNAc(a1-3)]Gal(b1-4)[Fuc(a1-3)]GlcNAc(b1-3)GalNAc
# In short: as §1
# [30] = molecular target: Fuc(a1-2)[GalNAc(a1-4)]Gal(b1-4)GlcNAc
# In short: as §1
# [31] = molecular target: Fuc(a1-2)[GalNAc(b1-3)]Gal
# In short: as §1
# Fuc(a1-3)GlcNAc = molecular target: Fuc(a1-3)GlcNAc
# In short: as §1
# [32] = molecular target: Fuc(a1-3)[Gal(b1-4)]Glc6S
# In short: as §1
# [33] = molecular target: Fuc(a1-3)[Gal(b1-4)]GlcNAc
# In short: as §1
# [34] = molecular target: Fuc(a1-3)[Gal(b1-4)]GlcNAc(b1-2)Man
# In short: as §1
# [35] = molecular target: Fuc(a1-3)[Gal(b1-4)]GlcNAc(b1-2)Man(a1-3)[Fuc(a1-3)[Gal(b1-4)]GlcNAc(b1-2)Man(a1-6)]Man(b1-4)GlcNAc(b1-4)GlcNAc
# In short: as §1
# [36] = molecular target: Fuc(a1-3)[Gal(b1-4)]GlcNAc(b1-2)Man(a1-3)[Fuc(a1-3)[Gal(b1-4)]GlcNAc(b1-2)Man(a1-6)]Man(b1-4)GlcNAc(b1-4)[Fuc(a1-6)]GlcNAc
# In short: as §1
# [37] = molecular target: Fuc(a1-3)[Gal(b1-4)]GlcNAc(b1-3)Gal(b1-3)[Fuc(a1-4)]GlcNAc
# In short: as §1
# [38] = molecular target: Fuc(a1-3)[Gal(b1-4)]GlcNAc(b1-3)Gal(b1-4)[Fuc(a1-3)]GlcNAc
# In short: as §1
# [39] = molecular target: Fuc(a1-3)[Gal(b1-4)]GlcNAc(b1-3)Gal(b1-4)[Fuc(a1-3)]GlcNAc(b1-3)Gal(b1-4)[Fuc(a1-3)]GlcNAc
# In short: as §1
# [40] = molecular target: Fuc(a1-3)[Gal(b1-4)]GlcNAc(b1-3)GalNAc
# In short: as §1
# [41] = molecular target: Fuc(a1-3)[Gal(b1-4)]GlcNAc(b1-6)GalNAc
# In short: as §1
# [42] = molecular target: Fuc(a1-3)[Gal(b1-4)]GlcNAc(b1-6)[Gal(b1-3)GlcNAc(b1-3)]Gal(b1-4)Glc
# In short: as §1
# [43] = molecular target: Fuc(a1-3)[Gal(b1-4)]GlcNAc6S
# In short: as §1
# [44] = molecular target: Fuc(a1-3)[Gal3S(b1-4)]Glc
# In short: as §1
binder,measurement,setting,value
"rAAL-I144G (Agrocybe aegerita), Q6WY08 (protein) MQGVNIYNISAGTSVDLAAPVTTGDIVTFFSSALNLNAGAGNPNNTTLNLFAENGAYLLHIAFRLQENVIIFNSRQPDGPWLVEQRVSDVANQFAGIDGKAMVTVFDHGDKYQVVINEKTVIQYTKQISGLTLSLSYNATEETSGFSTVVEAVTYTGLALEHHHHHH",glycan array binding signal (z-score),[1],-0.108
same,glycan array binding signal (z-score),[2],-0.142
same,glycan array binding signal (z-score),[3],-0.194
same,glycan array binding signal (z-score),[4],-0.12
same,glycan array binding signal (z-score),[5],-0.088
same,glycan array binding signal (z-score),[6],-0.077
same,glycan array binding signal (z-score),[7],-0.166
same,glycan array binding signal (z-score),[8],-0.118
same,glycan array binding signal (z-score),[9],-0.036
same,glycan array binding signal (z-score),[10],-0.166
same,glycan array binding signal (z-score),[11],-0.155
same,glycan array binding signal (z-score),[12],-0.146
same,glycan array binding signal (z-score),[13],-0.197
same,glycan array binding signal (z-score),[14],-0.092
same,glycan array binding signal (z-score),[15],-0.134
same,glycan array binding signal (z-score),[16],-0.021
same,glycan array binding signal (z-score),[17],-0.134
same,glycan array binding signal (z-score),[18],-0.157
same,glycan array binding signal (z-score),[19],-0.15
same,glycan array binding signal (z-score),[20],-0.217
same,glycan array binding signal (z-score),[21],0.003
same,glycan array binding signal (z-score),[22],-0.12
same,glycan array binding signal (z-score),[23],-0.162
same,glycan array binding signal (z-score),[24],-0.101
same,glycan array binding signal (z-score),[25],-0.183
same,glycan array binding signal (z-score),[26],-0.158
same,glycan array binding signal (z-score),[27],-0.117
same,glycan array binding signal (z-score),[28],-0.134
same,glycan array binding signal (z-score),[29],-0.041
same,glycan array binding signal (z-score),[30],-0.219
same,glycan array binding signal (z-score),[31],-0.068
same,glycan array binding signal (z-score),Fuc(a1-3)GlcNAc,-0.143
same,glycan array binding signal (z-score),[32],-0.162
same,glycan array binding signal (z-score),[33],-0.09
same,glycan array binding signal (z-score),[34],-0.188
same,glycan array binding signal (z-score),[35],-0.154
same,glycan array binding signal (z-score),[36],-0.074
same,glycan array binding signal (z-score),[37],-0.144
same,glycan array binding signal (z-score),[38],-0.126
same,glycan array binding signal (z-score),[39],-0.14
same,glycan array binding signal (z-score),[40],-0.098
same,glycan array binding signal (z-score),[41],-0.12
same,glycan array binding signal (z-score),[42],-0.06
same,glycan array binding signal (z-score),[43],-0.124
same,glycan array binding signal (z-score),[44],-0.051
